Source: patent US11117930B2, “Peptide inhibitors of transcription factor aggregation” (ADRX, INC., priority 2017, dated 2021)
pIC50: −log10 of the molar value. Not every detail of the peptide structures is certain; ends, links or a residue may be inferred. Some compounds share one wording; it may come from a single statement. For some assays here: At least one compound was matched to its structure with a doubt left. Non-standard residues stand in square brackets, D forms with d. Residues, ends and D or L forms follow the SMILES beside them. No end group written: not given here.

Key:
Type in all cases: biochemical
[1] = target: p63 [RPILIIVTLE—SEQ ID NO: 226] (Homo sapiens, UniProt Q9H3D4); assay: Thioflavin T aggregation assay, p63 amyloidogenic region; design: dose or concentration left out as unconfirmed; conditions: inhibitors added in solution; FIG. 2(a)
Description: (§1) FIGS. 1(a) and 1(b) show the aggregation of p63 and p73 amyloidogenic regions, respectively. The aggregation of the p63 and p73 sequences are monitored via Thioflavin T assay: an increase in Thioflavin T fluorescence is detected over time due to the formation of increasing amounts of amyloid to which the dye can specifically bind.
(§2) FIGS. 2(a) and 2(b) show the in vitro inhibition of p63 and p73 aggregation by several inhibitors. The aggregation is monitored via Thioflavin T assay. […] The baseline of no inhibitor is the line with squares.
The peptides are tested for p63 binding and p73 binding in an in vitro Thiofiavin T aggregation assay. […] The addition of the 50 μM solutions of p63 and p73 peptides to the reaction Buffer described in Example 3, forms amyloid (FIG. 1(a) and FIG. 1(b)). An increase in Thioflavin T fluorescence is detected over time due to the formation of increasing amounts of amyloid to which the dye can specifically bind. […] For the Nat1 Stock Solution, Nat1 (LTIITLE (SEQ ID NO: 225), >95% Pure, TFA salt) is dissolved at 8 mM in 25 mM NaOH solution and kept at −80° C. Prior to the assay, it is diluted to 1 mM in H2O. The 2× Reaction Buffer is prepared with 200 mM Sodium Phosphate, pH6.0, 500 mM Sodium Chloride and 200 μM Thioflavin T (ThT). 100 μL of 2× reaction buffer and 80 μL of H2O are added to each well in black, clear-bottomed 96-well plate. Inhibitor peptides are dissolved in H2O to appropriate concentrations to produce 6-points dose response curves. 10 μL of dissolved peptide or H2O (control) is added to each reaction well. 10 μL of 1 mM Nat1 peptide is added to each reaction well (a final concentration of 50 μM). ThT fluorescence is monitored at room temperature every minute for 2 hours with excitation and emission wavelengths of 440 and 485 nm, respectively. The results are found in FIG. 2(a) and FIG. 2(b).

[2] = target: Nat1 (LTIITLE (SEQ ID NO: 225)) (Homo sapiens, UniProt P04637); assay: Thioflavin T aggregation assay (Nat1); conditions: ThT fluorescence, 50 μM Nat1, pH6.0, room temperature, 2 hours
[3] = target: p73 [RPILIIITLE—SEQ ID NO: 227] (Homo sapiens, UniProt O15350); assay: Thioflavin T aggregation assay, p73 amyloidogenic region; design: dose or concentration left out as unconfirmed; conditions: inhibitors added in solution; FIG. 2(b)
Description: as §1, §2
An increase in Thioflavin T fluorescence is detected over time due to the formation of increasing amounts of amyloid to which the dye can specifically bind. […] For the Nat1 Stock Solution, Nat1 (LTIITLE (SEQ ID NO: 225), >95% Pure, TFA salt) is dissolved at 8 mM in 25 mM NaOH solution and kept at −80° C. Prior to the assay, it is diluted to 1 mM in H2O. The 2× Reaction Buffer is prepared with 200 mM Sodium Phosphate, pH6.0, 500 mM Sodium Chloride and 200 μM Thioflavin T (ThT). 100 μL of 2× reaction buffer and 80 μL of H2O are added to each well in black, clear-bottomed 96-well plate. Inhibitor peptides are dissolved in H2O to appropriate concentrations to produce 6-points dose response curves. 10 μL of dissolved peptide or H2O (control) is added to each reaction well. 10 μL of 1 mM Nat1 peptide is added to each reaction well (a final concentration of 50 μM). ThT fluorescence is monitored at room temperature every minute for 2 hours with excitation and emission wavelengths of 440 and 485 nm, respectively. The results are found in FIG. 2(a) and FIG. 2(b).

| Compound | in vitro inhibition of p63 aggregation [1] | pIC50 [2] | in vitro inhibition of p73 aggregation [3] |
| --- | --- | --- | --- |
| TFVFRHR [TFVFRHR] | delay the aggregation onset and lower the total amount of aggregates present | 4.69 | delay the aggregation onset and lower the total amount of aggregates present |
| IRIRRYR [IRIRRYR] | delay the aggregation onset and lower the total amount of aggregates present | 7.57 | delay the aggregation onset and lower the total amount of aggregates present |
| N=C(N)NCCC[C@@H](NC(=O)[C@@H](CCC(N)=O)NC(=O)[C@@H](Cc1ccc(O)cc1)NC(=O)[C@@H](CCCNC(=N)N)NC(=O)[C@@H](CCCNC(=N)N)NC(=O)[C@@H](CCC(N)=O)NC(=O)[C@H](N)Cc1c[nH]cn1)C(=O)O [hqrryqr] (H-[dH][dQ][dR][dR][dY][dQ][dR]-OH; N-terminus and C-terminus assumed) | delay the aggregation onset and lower the total amount of aggregates present | 4.41 | delay the aggregation onset and lower the total amount of aggregates present |
| N=C(N)NCCC[C@@H](N)C(=O)N[C@H](Cc1c[nH]c2ccccc12)C(=O)N[C@H](Cc1ccc(O)cc1)C(=O)N[C@H](Cc1c[nH]c2ccccc12)C(=O)N[C@H](Cc1c[nH]cn1)C(=O)N[C@H](Cc1c[nH]cn1)C(=O)N[C@H](CCCNC(=N)N)C(=O)O [rwywhhr] (H-[dR][dW][dY][dW][dH][dH][dR]-OH; N-terminus and C-terminus assumed) |  | 6.94 |  |
| CC(C)C[C@@H](N)C(=O)N[C@H](Cc1c[nH]c2ccccc12)C(=O)N[C@H](CCCNC(=N)N)C(=O)N[C@H](Cc1c[nH]c2ccccc12)C(=O)N[C@H](Cc1ccc(O)cc1)C(=O)N[C@H](CCCNC(=N)N)C(=O)N[C@H](CCCNC(=N)N)C(=O)O [lwrwyrr] (H-[dL][dW][dR][dW][dY][dR][dR]-OH; N-terminus and C-terminus assumed) |  | 6.71 |  |
| ILRLYFR [ILRLYFR] |  | 5.05 |  |
| FRLYIH [FRLYIH] |  | 4.79 |  |
| IRIARYR [IRIARYR] |  | 7.36 |  |
| C[C@@H](NC(=O)[C@@H](Cc1c[nH]c2ccccc12)NC(=O)[C@@H](CCCNC(=N)N)NC(=O)[C@@H](Cc1c[nH]c2ccccc12)NC(=O)[C@H](N)Cc1ccccc1)C(=O)N[C@H](CCCNC(=N)N)C(=O)N[C@H](CCCNC(=N)N)C(=O)O [fwrwarr] (H-[dF][dW][dR][dW][dA][dR][dR]-OH; N-terminus and C-terminus assumed) |  | 6.75 |  |
| TLIIYHR [TLIIYHR] |  | 6.45 |  |
| N=C(N)NCCC[C@@H](NC(=O)[C@@H](CCCNC(=N)N)NC(=O)[C@@H](Cc1ccc(O)cc1)NC(=O)[C@@H](Cc1c[nH]c2ccccc12)NC(=O)[C@@H](CCCNC(=N)N)NC(=O)[C@@H](Cc1c[nH]c2ccccc12)NC(=O)[C@H](N)Cc1c[nH]c2ccccc12)C(=O)O [wwrwyrr] (H-[dW][dW][dR][dW][dY][dR][dR]-OH; N-terminus and C-terminus assumed) |  | 7.11 |  |
